Measurements: article PMC9116245, “New 1,2,3-triazole linked ciprofloxacin-chalcones induce DNA damage by inhibiting human topoisomerase I& II and tubulin polymerization” (Journal of Enzyme Inhibition and Medicinal Chemistry, 2022)

These compounds were tested on NCI-H322M (assay: NCI one-dose screen). Conditions: Homo sapiens, read-out: Growth Percent.
Assay type: cell-based
Experimental: For screening of anticancer properties, all the developed compounds were chosen by the (NCI) for in-vitro antitumor evaluation. The assay was carried out using 59 human cancer cell lines obtained from nine tumour subpanels (breast, ovarian, melanoma, leukaemia, renal, CNS, lung, prostate, and colon cancer cell lines). Compounds were assessed at a 10 µM concentration. […] Also, hybrids 4a, 4b, 4e, 4i and 4j produced significant anti-proliferative effect in several cancer cells, particularly in leukaemia (RPMI-8226) and colon (HCT116) cells with growth percent of 47.87, −14.59, −24.56, −24.42, −15.84, −9.74, −53.36, −10.26, −31.29, and −39.51%, respectively.
(§1) The method description for NCI anticancer screening is provided in detail in the standard NCI-60 testing protocol.
With COc1cc(/C=C/C(=O)c2ccc(-n3cc(CN4CCN(c5cc6c(cc5F)c(=O)c(C(=O)O)cn6C5CC5)CC4)nn3)cc2)cc(OC)c1OC [Compound 4j, (E)-1-cyclopropyl-6-fluoro-4-oxo-7–(4-((1–(4-(3-(3,4,5-trimethoxyphenyl)acryloyl)phenyl)-1H-1,2,3-triazol-4-yl)methyl)piperazin-1-yl)-1,4-dihydroquinoline-3-carboxylic acid] the activity at 10 µM was 52.6%.
CN(C)c1ccc(/C=C/C(=O)c2ccc(-n3cc(CN4CCN(c5cc6c(cc5F)c(=O)c(C(=O)O)cn6C5CC5)CC4)nn3)cc2)cc1 [Compound 4h, (E)-1-cyclopropyl-7–(4-((1–(4-(3-(4-(dimethylamino)phenyl)acryloyl)phenyl)-1H-1,2,3-triazol-4-yl)methyl)piperazin-1-yl)-6-fluoro-4-oxo-1,4-dihydroquinoline-3-carboxylic acid] gave an activity at 10 µM of 94.3%.
For O=C(/C=C/c1cccc(Cl)c1)c1ccc(-n2cc(CN3CCN(c4cc5c(cc4F)c(=O)c(C(=O)O)cn5C4CC4)CC3)nn2)cc1 [Compound 4b, (E)-7-(4-((1–(4-(3-(3-chlorophenyl)acryloyl)phenyl)-1H-1,2,3-triazol-4-yl)methyl)piperazin-1-yl)-1-cyclopropyl-6-fluoro-4-oxo-1,4-dihydroquinoline-3-carboxylic acid], the activity at 10 µM was 80.2%.
Cc1ccc(/C=C/C(=O)c2ccc(-n3cc(CN4CCN(c5cc6c(cc5F)c(=O)c(C(=O)O)cn6C5CC5)CC4)nn3)cc2)cc1 [Compound 4f, (E)-1-cyclopropyl-6-fluoro-4-oxo-7-(4-((1-(4-(3-(p-tolyl)acryloyl)phenyl)-1H-1,2,3-triazol-4-yl)methyl)piperazin-1-yl)-1,4-dihydroquinoline-3-carboxylic acid] showed an activity at 10 µM of 87.1%.
Compound COc1ccc(/C=C/C(=O)c2ccc(-n3cc(CN4CCN(c5cc6c(cc5F)c(=O)c(C(=O)O)cn6C5CC5)CC4)nn3)cc2)cc1 [Compound 4g, (E)-1-Cyclopropyl-6-fluoro-7-(4-((1-(4-(3-(4-methoxyphenyl)acryloyl)phenyl)-1H-1,2,3-triazol-4-yl)methyl)piperazin-1-yl)-4-oxo-1,4-dihydroquinoline-3-carboxylic acid] has an activity at 10 µM of 78.1%.
COc1ccc(/C=C/C(=O)c2ccc(-n3cc(CN4CCN(c5cc6c(cc5F)c(=O)c(C(=O)O)cn6C5CC5)CC4)nn3)cc2)cc1OC [Compound 4i, (E)-1-cyclopropyl-7-(4-((1-(4-(3–(3,4-dimethoxyphenyl)acryloyl)phenyl)-1H-1,2,3-triazol-4-yl)methyl)piperazin-1-yl)-6-fluoro-4-oxo-1,4-dihydroquinoline-3-carboxylic acid] was tested, and the activity at 10 µM was 72.8%.
With O=C(/C=C/c1ccc(Cl)cc1)c1ccc(-n2cc(CN3CCN(c4cc5c(cc4F)c(=O)c(C(=O)O)cn5C4CC4)CC3)nn2)cc1 [Compound 4c, (E)-7-(4-((1-(4-(3-(4-chlorophenyl)acryloyl)phenyl)-1H-1,2,3-triazol-4-yl)methyl)piperazin-1-yl)-1-cyclopropyl-6-fluoro-4-oxo-1,4-dihydroquinoline-3-carboxylic acid] the activity at 10 µM was 84.4%.
O=C(/C=C/c1ccccc1)c1ccc(-n2cc(CN3CCN(c4cc5c(cc4F)c(=O)c(C(=O)O)cn5C4CC4)CC3)nn2)cc1 [Compound 4a, (E) 7-(4-((1–(4-Cinnamoylphenyl)-1H-1,2,3-triazol-4-yl)methyl)piperazin-1-yl)-1-cyclopropyl-6-fluoro-4-oxo-1,4-dihydroquinoline-3-carboxylic acid] was tested, and the activity at 10 µM was 89.2%.
In the case of O=C(/C=C/c1ccc(Br)cc1)c1ccc(-n2cc(CN3CCN(c4cc5c(cc4F)c(=O)c(C(=O)O)cn5C4CC4)CC3)nn2)cc1 [Compound 4d, (E)-7-(4-((1-(4-(3-(4-bromophenyl)acryloyl)phenyl)-1H-1,2,3-triazol-4-yl)methyl)piperazin-1-yl)-1-cyclopropyl-6-fluoro-4-oxo-1,4-dihydroquinoline-3-carboxylic acid], the activity at 10 µM is reported as 88.8%.
For O=C(/C=C/c1ccc(F)cc1)c1ccc(-n2cc(CN3CCN(c4cc5c(cc4F)c(=O)c(C(=O)O)cn5C4CC4)CC3)nn2)cc1 [Compound 4e, (E)-1-cyclopropyl-6-fluoro-7–(4-((1–(4-(3-(4-fluorophenyl)acryloyl)phenyl)-1H-1,2,3-triazol-4-yl)methyl)piperazin-1-yl)-4-oxo-1,4-dihydroquinoline-3-carboxylic acid], the activity at 10 µM was 77.5%.

The compounds below were run on NCI-H322M (assay: not given). Conditions: Homo sapiens.
Experimental: Showing promising results in the single-dose assay, compound 4j was advanced for further investigation against a panel of 59 human cancer cell-lines at a five-dose levels. Those cell lines represent nine different tumours, and they were all incubated with our compound at 5 increasing concentrations (0.01, 0.1, 1, 10 and 100 µM). The In-vitro five-dose assay results were listed in Table 1, as GI50 which is the concentration causes 50% inhibition of cell proliferation and it was expressed in µM.
as §1
COc1cc(/C=C/C(=O)c2ccc(-n3cc(CN4CCN(c5cc6c(cc5F)c(=O)c(C(=O)O)cn6C5CC5)CC4)nn3)cc2)cc(OC)c1OC [Compound 4j, (E)-1-cyclopropyl-6-fluoro-4-oxo-7–(4-((1–(4-(3-(3,4,5-trimethoxyphenyl)acryloyl)phenyl)-1H-1,2,3-triazol-4-yl)methyl)piperazin-1-yl)-1,4-dihydroquinoline-3-carboxylic acid] gave a GI50 of 3.58 µM.

Same assay, conditions: Homo sapiens, read-out: LC50 (the source's name)
In the case of COc1cc(/C=C/C(=O)c2ccc(-n3cc(CN4CCN(c5cc6c(cc5F)c(=O)c(C(=O)O)cn6C5CC5)CC4)nn3)cc2)cc(OC)c1OC [Compound 4j, (E)-1-cyclopropyl-6-fluoro-4-oxo-7–(4-((1–(4-(3-(3,4,5-trimethoxyphenyl)acryloyl)phenyl)-1H-1,2,3-triazol-4-yl)methyl)piperazin-1-yl)-1,4-dihydroquinoline-3-carboxylic acid], the CC50 is reported as greater than 100 µM.
